# Data from publication PMC4336329 (PLoS ONE, 2015).
# The whole screen tested about 310,000 compounds, of which about 2,200 (0.71%) showed an effect of 50% or more. Effects have a minus sign here. The list shows a part of the results.
# Target: human ether-à-go-go-related gene (hERG) potassium channel (human, UniProt Q12809)
# Test: primary screen, population patch clamp on CHO cells stably expressing hERG
# Chain of human ether-à-go-go-related gene (hERG) potassium channel (Q12809 whole entry, looked up): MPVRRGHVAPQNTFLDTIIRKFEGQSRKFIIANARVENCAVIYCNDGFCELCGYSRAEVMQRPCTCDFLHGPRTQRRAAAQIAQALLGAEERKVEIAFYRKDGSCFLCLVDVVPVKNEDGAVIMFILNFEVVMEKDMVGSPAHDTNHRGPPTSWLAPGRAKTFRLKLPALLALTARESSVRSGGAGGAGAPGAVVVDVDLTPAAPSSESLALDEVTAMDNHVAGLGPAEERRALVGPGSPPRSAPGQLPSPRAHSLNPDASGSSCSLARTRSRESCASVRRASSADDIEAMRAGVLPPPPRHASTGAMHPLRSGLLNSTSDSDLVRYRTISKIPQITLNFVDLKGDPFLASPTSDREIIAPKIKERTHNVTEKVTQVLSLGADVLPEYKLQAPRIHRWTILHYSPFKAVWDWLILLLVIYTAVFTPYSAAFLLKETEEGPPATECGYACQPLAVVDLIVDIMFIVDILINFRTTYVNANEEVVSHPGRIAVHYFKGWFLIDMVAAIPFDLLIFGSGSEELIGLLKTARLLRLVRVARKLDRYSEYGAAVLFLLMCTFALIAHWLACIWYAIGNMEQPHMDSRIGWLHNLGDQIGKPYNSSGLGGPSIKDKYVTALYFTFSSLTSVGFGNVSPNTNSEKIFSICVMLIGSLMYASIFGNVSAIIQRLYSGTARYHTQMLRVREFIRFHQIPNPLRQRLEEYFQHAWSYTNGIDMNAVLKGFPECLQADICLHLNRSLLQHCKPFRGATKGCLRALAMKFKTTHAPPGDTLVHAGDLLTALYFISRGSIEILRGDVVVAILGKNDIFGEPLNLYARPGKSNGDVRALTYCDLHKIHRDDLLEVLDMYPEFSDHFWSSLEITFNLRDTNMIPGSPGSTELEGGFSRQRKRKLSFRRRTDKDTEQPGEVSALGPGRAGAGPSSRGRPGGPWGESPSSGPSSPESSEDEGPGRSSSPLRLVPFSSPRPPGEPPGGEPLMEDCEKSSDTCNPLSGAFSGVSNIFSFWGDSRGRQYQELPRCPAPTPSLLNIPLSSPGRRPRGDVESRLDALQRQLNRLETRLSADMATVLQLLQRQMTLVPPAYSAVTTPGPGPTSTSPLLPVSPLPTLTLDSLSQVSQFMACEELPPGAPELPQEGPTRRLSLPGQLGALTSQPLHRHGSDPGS
row,SMILES,"hERG current change (%, negative = inhibition) at 1uM [%]"
1,O=C(/C=C/c1ccccc1[N+](=O)[O-])NCCCN1CCCC1=O,18.1
2,CC1=C(C(=O)OCC2CCCO2)C(c2cccc(C(F)(F)F)c2)C2=C(CC(c3ccco3)CC2=O)N1 (stereo not drawn),9.71
3,CN1CCN(C(=O)/C(=C\c2ccc3c(c2)OCO3)NC(=O)c2cccs2)CC1,-75.6
4,Cc1ccccc1-c1nnc(SCc2ccccc2F)o1,-8.44
5,CC(C)CC(c1nnnn1C(C)(C)C)N1CCN(Cc2ccccc2)CC1.Cl (stereo not drawn),6.39
6,CC(C)CCNC(=O)c1cccc(C(=O)NCCC(C)C)c1,16
7,O=C(CSc1ccccc1)Nc1ccncc1,10.8
8,CCCCCCN=C(C)c1ccccc1O,9.22
9,CSc1cccc(NC(=O)c2cnn3ccccc23)c1,14.4
10,CN1CCN(S(=O)(=O)c2ccc(NC(=O)Cc3cccs3)cc2)CC1,-0.519
11,CCC1(C)Cc2c(sc3c2c(=O)n(-c2ccccc2)c(=O)n3C)CO1 (stereo not drawn),10.8
12,CCOC(=O)N1CCN(C(=O)c2cccn3c(=O)c4cc(Br)ccc4nc23)CC1,-30.6
13,NC(=O)C1CCN(C(=O)c2cc3ccccc3cc2O)CC1,5.46
14,O=C(NCC1CCCO1)c1nn2cccnc2c1Cl (stereo not drawn),16
15,CCOc1ccc(S(=O)(=O)N2CCCCC2)cc1NC(=O)CN1C(=O)NC(CC)(c2ccccc2)C1=O (stereo not drawn),10.5
16,Cc1nc(-c2ccc(O)c(O)c2)cs1,1.64
17,Cc1ccc(-c2ccc(/C=C(\C#N)C(=O)Nc3cc(C)nn3-c3ccccc3)o2)cc1,7
18,CCOC(=O)CC1C(=O)NCCN1C(=O)c1sc2ccccc2c1Cl (stereo not drawn),18.9
19,O=C(NCCO)c1ccc2c(c1)S(=O)(=O)c1ccccc1C2=O,1.72
20,CNC(=O)c1c(C)nc(SCC(=O)NCc2ccc(OC)cc2)c(C#N)c1-c1ccco1,-7.83
21,Cn1cc(CNC(=O)/C=C/c2ccc(Cl)cc2)cn1,11.2
22,CCN(CC(=O)NCc1cccs1)C(=O)c1cccc(S(=O)(=O)NC)c1,14.1
23,COc1ccc(Cn2cc(C(=O)c3ccccc3)c(=O)c3cc(OC)ccc32)cc1,-2.11

row,SMILES,"hERG current change (%, negative = inhibition) at 1uM [%]"
1,CN(C)[C@@H]1C(=O)C(C(N)=O)=C(O)[C@@]2(O)C(=O)C3=C(O)c4c(O)cccc4[C@@](C)(O)[C@H]3[C@H](O)[C@@H]12,5.51
2,Cc1cc(/C=C(/C#N)c2nc3ccccc3[nH]2)c(C)n1-c1ccccc1C(=O)O,17.3
3,COC(=O)N(C)c1ccc(C(O)(C(=O)OC)C(F)(F)F)cc1 (stereo not drawn),1.43
4,CSc1ccc(/C=N/n2nnnc2N)cc1,1.09
5,O=C(COC(=O)c1ccc(Cl)c(S(=O)(=O)NCc2ccccc2)c1)NCC1CCCO1 (stereo not drawn),5.46
6,CC(C)NC(=O)CC1OC(=O)c2ccccc21 (stereo not drawn),16.2
7,N#CC1=C(N)N2C(=C(C#N)C1c1ccccc1)Sc1ccccc12 (stereo not drawn),7.56
8,COc1ccc(/C=C/C(=O)c2ccc3c(c2)OCO3)c(OC)c1,3.45
9,Cc1c(Cl)cnc(NC(=O)COC(=O)c2ccc3c(c2)OCO3)c1Cl,7
10,CCCCCn1c(=O)c(C(=O)Nc2ccccc2S(N)(=O)=O)c(O)c2ccccc21,14.1
11,COc1ccc(Br)cc1/C=N/NC(=O)CN1CCCCC1,4.9
12,CCCN(CCC)C(=O)c1ccc2c(c1)OCO2,2.21
13,CN(CC(=O)Nc1ccc([N+](=O)[O-])cc1Br)Cc1c(F)cccc1Cl,9.69
14,N=c1nc(N2CCCCC2)cc(N)n1O,13.2
15,CCOC(=O)c1ccc(NC(=S)N(CCCN2CCCCC2)Cc2ccco2)cc1,-71.3
16,N#CC1(Cc2ccccc2Cl)c2ccccc2C=CN1C(=O)c1ccccc1 (stereo not drawn),17
17,O=C(COC(=O)C1(c2ccc(F)cc2)CCCC1)N1CCc2ccccc21,7.76
18,O=C(NCC1CCCO1)c1ccc(S(=O)(=O)N2CCCCC2)cc1 (stereo not drawn),4.44
19,COc1ccc(C(c2nnnn2Cc2ccccc2)N2CCN(C(=O)c3ccco3)CC2)cc1OC.Cl (stereo not drawn),-7.96
20,O=C(Cn1c2ccccc2c2nc3n(c(=O)c21)CCS3)Nc1ccccc1C(F)(F)F,9.51
21,CCCn1nnc(NC(=O)COc2ccc(C3CCCCC3)cc2)n1,10.2
22,NC(=O)c1oc2ccccc2c1NC(=O)C1COc2ccccc2O1 (stereo not drawn),13.7
